# Results from article PMC12136788.
# Some of the results follow.
# T1: UNK ZnF1-3 (human, UniProt Q9C0B0 31-174)
# T1 sequence: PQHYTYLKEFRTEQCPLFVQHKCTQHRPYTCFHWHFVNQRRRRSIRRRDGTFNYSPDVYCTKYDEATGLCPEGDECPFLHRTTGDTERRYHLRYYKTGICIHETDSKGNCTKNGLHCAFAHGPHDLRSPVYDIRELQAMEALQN
# B1: chr11:100882373:100882374:+_ENSMUSG00000019302_ENSMUST00000044721|mus_mus|mus_mus_mus_hu_True|1_38 (ssRNA)
# RNA: GGGAGUUCUACAGUCCGACGAUCUUCCUGGUUUGUGUUGAUUUCCUUCAGUUCAUUUUCAAUCUUCUCAAAAUUGGCCUCUAAGUCAAUCAUGUCCCGAGGGAAGGGAACCUCUGGGUUUUCACCGGUGUCCAUAAUUGGGAUCAACAGAGGAUUGAGCAUCA
# B2: chr14:92597410:92597411:+_ENSG00000165934_ENST00000298875|hu_mus|motif|central (ssRNA)
# RNA: GGGAGUUCUACAGUCCGACGAUCGGAAUCAAUAAUGUCCACAGAGAAGUGUUCAUCCCAGCCACAGUCCAACAAAAACCGGAACUCAUCAACCUGGAGAAGAUAGCAAAGAGCGGACUCUUCUUGAACCCCAGAGAGGGUGGUCAACAGAGGAUUGAGCAUCA
# B3: chr1:93819538:93819539:+_ENSG00000117505_ENST00000370267|hu_hu|motif|central (ssRNA)
# RNA: GGGAGUUCUACAGUCCGACGAUCUUCUUCAGGAAUGCCAAGGUUUUCCAAACGAGAACUGGCCUUUCUUCUUUUUAAUGCGGCUGUUUUACACUCUUGCAAGACUUCUUUUACUUCACUGAUGUAAGAGCCAAAUCCCAAACUCAACAGAGGAUUGAGCAUCA
# B4: chr11:85733470:85733471:-_ENSG00000073921_ENST00000532317|hu_mus|motif|central (ssRNA)
# RNA: GGGAGUUCUACAGUCCGACGAUCUUUUGUGAAAUCGAAUGCAACUUGUCUGUAUGAAACUGCUUUUUCAUUUAAGUAUCGGCGGUACCGUCUAAUAAAUGUAGACAUAUCAUAUCCUUGCAAUCCACUUUUAUCCAAAAAAUUCAACAGAGGAUUGAGCAUCA
# B5: 74666470_74670262_1565_CDS_ENSG00000168411_ENST00000361070|human|control|control (ssRNA)
# RNA: GGGAGUUCUACAGUCCGACGAUCGAGGUAACUGCUAAACGCCAGUCCACGGAUCUGUUUGCCAUGCAUCGGAAUGUACUGACUGCUCUUCAUGUUGGCAGUACUCAACAUCUUAACACCAAAGCCUGGAAGAAAAGAGGCCUGCAACAGAGGAUUGAGCAUCA
# B6: 102192454_102204202_1208_CDS_ENSMUSG00000021182_ENSMUST00000068411|mouse|control|control (ssRNA)
# RNA: GGGAGUUCUACAGUCCGACGAUCGGCAGUCAGUUGUUCCUCCAACAUGGCUUUGGUCUCGAUUAAGAUGAUAUUGUCUUCCCUCAGCUCCUCCAUGCGAGCCUUGUAGAAGUCCACGUCGUGCAGCUUCUCCUUGCAGCGUACCAACAGAGGAUUGAGCAUCA
# B7: chr7:34932688:34932689:-_ENSMUSG00000052997_ENSMUST00000102746|mus_mus|motif|central (ssRNA)
# RNA: GGGAGUUCUACAGUCCGACGAUCCAAGAGCUUCUUUCUUGGGUUUGGCUGCUUAUUCAAAAAAAUAGUUCUACACUGGUCGGUUUUUCCAGAUAAAAUCUUUAAUCCUUCCAACACUAUCAAGCCGGCGAUCACUGCAUUAGUCAACAGAGGAUUGAGCAUCA
# B8: chr6:17615347:17615348:+_ENSMUSG00000015733_ENSMUST00000015877|mus_mus|motif|central (ssRNA)
# RNA: GGGAGUUCUACAGUCCGACGAUCAUCUGCUCAUGCAAUUUUCAUUUAUGCAUUCUGCAUCUCUUUGCCAAUCUUGUAGCGGAGGAUCUUGUUCCAGUCGAUCUUAGUACGUGUCACUGGCAACUGUCGACGUAAGGCUUUGAACAACAGAGGAUUGAGCAUCA
# B9: chr10:33190432:33190433:-_ENSG00000150093_ENST00000302278|hu_mus|hu_hu_hu_mus_True|18_108 (ssRNA)
# RNA: GGGAGUUCUACAGUCCGACGAUCUACAUUUUCAAAACCUGCAUGUGAAUAAAACCCUGGCCACAGAGCCCCAAAACUACCCUACUGUGACUAAGAUGCUGCUGCUGUGAGCUUGGUUGUUGUGGGACCGCCUGAGUAGGAUUCCAACAGAGGAUUGAGCAUCA
# B10: 65275549_65275669_1531_CDS_ENSMUSG00000051675_ENSMUST00000050850|mouse|control|control (ssRNA)
# RNA: GGGAGUUCUACAGUCCGACGAUCGCCCCAUGGUUUGCUCAGCUGGCUCCUGUGACAGGCCACACAGUGGCCAUCCAUGGUAUAGACUUUAAGGGAGUUGUCGUAGCUAUCAGUGACACCAAUCAGCCCAUGGCAGUUCAUGGCCAACAGAGGAUUGAGCAUCA
# B11: chr2:37459336:37459337:+_ENSG00000003509_ENST00000002125|hu_mus|FALSE|FALSE (ssRNA)
# RNA: GGGAGUUCUACAGUCCGACGAUCCAAAACCUCCUUCAUGUACUCGGCCACAGUGAUGGGACCUGUAGACUUUAUUUUGUACAUAAGAUGCCGCAGCAUCGGUGUCACCUGGUUGCUUUCUGCCGGCUCAUUCCCGGAGCUGUACAACAGAGGAUUGAGCAUCA
# B12: 54996932_54997052_332_3pUTR_ENSMUSG00000032307_ENSMUST00000059555|mouse|control|control (ssRNA)
# RNA: GGGAGUUCUACAGUCCGACGAUCAUGACCCAGCCCCUUUCCGCCCCACACCGGGGCUCCGCGCCCAGCACCCGCCGCUCGCCCCGAGGAUUUGGGCCGGCGGCACCGCACGAGGAUGAACCUGAGCUCCCCUGCGCGCCUCUGCAACAGAGGAUUGAGCAUCA
# B13: chr6:74354288:74354289:-_ENSG00000119899_ENST00000355773|hu_mus|FALSE|FALSE (ssRNA)
# RNA: GGGAGUUCUACAGUCCGACGAUCACUCAGGUUCACCCGUAAGGCAUAGAGAACGAAGAAACCACAGAACGCCAAAAUCGCUAAGUUGUACCGAGCAGAGCAGCACACUGGAGCCGCUUCGGUCUGCCGGGCGCCCGGCAGGAGCAACAGAGGAUUGAGCAUCA
# B14: chr5:54662584:54662585:+_ENSG00000039123_ENST00000230640|hu_hu|motif|central (ssRNA)
# RNA: GGGAGUUCUACAGUCCGACGAUCAAUUUCUUCUACACGUAGUAAGUUCAAAACCAUGUUGUAGGUCAAAUGGAAAGCACGGUUUAGAGGAUCAGCGGAGCCCUUAAGUAAUUGUUUUCCAAUUGUUGGGCUCAUCUUUUCAUCCAACAGAGGAUUGAGCAUCA
# B15: 45545573_45577520_468_3pUTR_ENSMUSG00000025217_ENSMUST00000065601|mouse|control|control (ssRNA)
# RNA: GGGAGUUCUACAGUCCGACGAUCAAAAUACUUGACACACAGCUCCUUUUCCUUCUCAUAGCUUGCUGAGAGUUUCCGCUGCUUGGGCACAAUCAUGCUGGAAGUGCCAUUGGCAAGUUUGGCUUUGGCCACACAAUUUUCAGUCAACAGAGGAUUGAGCAUCA
# B16: chr4:25749455:25749456:-_ENSG00000091490_ENST00000264868|hu_hu|hu_hu_hu_mus_False|28_28 (ssRNA)
# RNA: GGGAGUUCUACAGUCCGACGAUCGCACUAUGACCUCUAGAAAAAUCCACAGGGGGAAAAAAUGUAAACCAAUGUACAAUGUUAUCGCCUUCCCUGUGUGUGGAGUGACAAACAAUUGGCUCCUUCUAGCUGCUGGAUUUGGGACAACAGAGGAUUGAGCAUCA
# B17: chr7:149068622:149068623:-_ENSMUSG00000025139_ENSMUST00000001950|mus_hu|mus_mus_mus_hu_False|58_68 (ssRNA)
# RNA: GGGAGUUCUACAGUCCGACGAUCGUGAGGCCUCUGAGUGUGGCUUGUGGUCUGUCCUGGGUUAGAGCUGCUGGUAACACUAAGUGGACCAUCUAGAACGUUCCAGUCCCGCCUGACACCUUCAUUCCCAAUGGAGAAGAAAUCCAACAGAGGAUUGAGCAUCA
# B18: chr7:65705844:65705845:+_ENSG00000169902_ENST00000304842|hu_mus|hu_hu_hu_mus_False|18_28 (ssRNA)
# RNA: GGGAGUUCUACAGUCCGACGAUCAAACGGAUCUUUGUUACAUAAAUAAGGUGCCGGCUCCCCAUGUUUAACAAUGACCUCCAGAAGGAAGGCUUGCAUGGCAGAAUCCAGCACUUCAUCAGUAACACCCGCCUCAUCCAAGCGCAACAGAGGAUUGAGCAUCA
# B19: chr11:110355629:110355630:+_ENSMUSG00000020623_ENSMUST00000020949|mus_hu|motif|central (ssRNA)
# RNA: GGGAGUUCUACAGUCCGACGAUCGUGAAUGACAGACAGCUUACUAUGUAAAUGUUCUAAUGCUUUUACAAUAGAAACUGCGGUUUUCCCUAAGAUGUCCUCUGGAAUUGUCUGGCCUUUAUCAAUAACUUGUUUGUAGAAUUUCAACAGAGGAUUGAGCAUCA
# B20: chr2:61711136:61711137:-_ENSG00000082898_ENST00000401558|hu_mus|FALSE|FALSE (ssRNA)
# RNA: GGGAGUUCUACAGUCCGACGAUCAACAUUCCUCAUAGUAUGUUUAAAAGCCCAAAUAAUAGAAUCCAAAACCAGCUUGAACUGUGCAGGUGGAAUAGCUAGGAAUGCUGGGAAACAGUGAGAAUUGACAGCUUGAAGUAAUAACAACAGAGGAUUGAGCAUCA
# B21: chr11:46405157:46405158:+_ENSG00000110492_ENST00000395566|hu_hu|hu_hu_hu_mus_False|48_58 (ssRNA)
# RNA: GGGAGUUCUACAGUCCGACGAUCCCCUCCCCACUUUGGGCACUUGGUGUGGGCGUGAGAGGACAGGCGUGAUUGACAAAGCUAACGAGCAGACAGAAGGCACUGGUGGGUUAUAUCUUGGGCCUGUGGGAGAGGAGGGCUCCGCAACAGAGGAUUGAGCAUCA
# B22: chrX:71549400:71549401:+_ENSMUSG00000019087_ENSMUST00000019231|mus_hu|mus_mus_mus_hu_False|1_58 (ssRNA)
# RNA: GGGAGUUCUACAGUCCGACGAUCGCAGUAGGAAGAGGGAAGCUCUUCAGUCCAGUGCGCUGCAGGGUGGGAAAGCACAACCUAGACCACCGUCCCACCCUCAACCCCCCCACUGGCACAGGGUCACACAAUCUGGGAAGUGAUCAACAGAGGAUUGAGCAUCA
# Molecular target: T1, UNK ZnF1-3
# Test: nsRBNS (natural sequence RNA bind-n-seq); RBNS binding buffer (assumed for nsRBNS): 25 mM Tris pH 7.5, 150 mM KCl, 3 mM MgCl2, 0.01% Triton X-100, 500 ug/ml BSA, 20 U/ml SUPERase-In, 4 C; UNK is unkempt and MSI1 is Musashi-1; names of the RNAs are library labels; protein concentration not given here; high values mean tight binding
row,Binder,binding signal
1,B1,0.643 enrichment R
2,B2,1.02 enrichment R
3,B3,0.479 enrichment R
4,B4,0.367 enrichment R
5,B5,0.899 enrichment R
6,B6,0.694 enrichment R
7,B7,1.16 enrichment R
8,B8,0.519 enrichment R
9,B9,1.28 enrichment R
10,B10,1.25 enrichment R
11,B11,0.78 enrichment R
12,B12,1.08 enrichment R
13,B13,1.49 enrichment R
14,B14,0.476 enrichment R
15,B15,0.796 enrichment R
16,B16,1.06 enrichment R
17,B17,0.92 enrichment R
18,B18,0.214 enrichment R
19,B19,0.715 enrichment R
20,B20,1.91 enrichment R
21,B21,2.85 enrichment R
22,B22,1.02 enrichment R
